In a collection of fitness landscapes (doi:10.1126/science.1257360):
The list shows a part of the results.

B1: PhoQ; a variant is named by its letters at X, in order, P23837 (parent)
chain: MKKLLRLFFPLSLRVRFLLATAAVVLVLSLAYGMVALIGYSVSFDKTTFRLLRGESNLFYTLAKWENNKLHVELPENIDKQSPTMTLIYDENGQLLWAQRDVPWLMKMIQPDWLKSNGFHEIEADVNDTSLLLSGDHSIQQQLQEVREDDDDAEMTHSVAVNVYPATSRMPKLTIVVVDTIPVELKSSYMVWSWFIYVLSANLLLVIPLLWVAAWWSLRPIEALAKEVRELEEHNRELLNPATTRELTSLVRNLNRLLKSERERYDKYRTTLTDLTHSLKTPLXXLQXXLRSLRSEKMSVSDAEPVMLEQISRISQQIGYYLHRASMRGGTLLSRELHPVAPLLDNLTSALNKVYQRKGVNISLDISPEISFVGEQNDFVEVMGNVLDNACKYCLEFVEISARQTDEHLYIVVEDDGPGIPLSKREVIFDRGQRVDTLRPGQGVGLAVAREITEQYEGKIVAGESMLGGARMEVIFGRQHSAPKDE

Variants of: B1
Assay: enrichment ratio after two sorts for PhoP signalling (ratio (wild type AVST 3.29)); higher = more functional
Conditions: with PhoP (E. coli)

Variant | enrichment ratio
GLTN | ≤ 0.25
EFPC | ≤ 0.25
VFRM | ≤ 0.25
SAAN | 11.7
GHEI | ≤ 0.25
KMTW | ≤ 0.25
TQRN | ≤ 0.25
HQFM | 5.44
IGCR | ≤ 0.25
MICM | 5.81
GDMS | ≤ 0.25
TQIP | ≤ 0.25
SFLI | 0.615
RYKV | ≤ 0.25
TGAP | ≤ 0.25
NMWP | ≤ 0.25
QYAG | ≤ 0.25
MSNC | ≤ 0.25
SFST | ≤ 0.25
FEHE | ≤ 0.25
KCFN | ≤ 0.25
HKPM | ≤ 0.25
VTMD | ≤ 0.25
NVRW | ≤ 0.25
RGTC | ≤ 0.25

Variant | enrichment ratio
TGMF | 9.36
MHSQ | ≤ 0.25
DVHL | ≤ 0.25
TQYK | ≤ 0.25
MTWQ | 6.29
MCIF | ≤ 0.25
HAEP | ≤ 0.25
RCAG | ≤ 0.25
HGAK | ≤ 0.25
PANK | ≤ 0.25
VICH | ≤ 0.25
WNAN | ≤ 0.25
LMPK | ≤ 0.25
HLFR | ≤ 0.25
SQKQ | ≤ 0.25
FIPM | ≤ 0.25
RFFR | ≤ 0.25
PWVW | ≤ 0.25
AASP | ≤ 0.25
HFEL | ≤ 0.25
NQYF | ≤ 0.25
SRPL | ≤ 0.25
TNDW | ≤ 0.25
ITCT | ≤ 0.25
VVHY | ≤ 0.25

Variant | enrichment ratio
VQNL | ≤ 0.25
HLFP | ≤ 0.25
RITH | ≤ 0.25
LRAK | ≤ 0.25
MEPI | ≤ 0.25
KMTP | ≤ 0.25
MQTP | ≤ 0.25
DPPF | ≤ 0.25
DQYM | ≤ 0.25
AHKL | ≤ 0.25
FDQR | ≤ 0.25
LEEI | ≤ 0.25
QDYW | ≤ 0.25
TPVW | ≤ 0.25
QGIC | ≤ 0.25
DLYP | ≤ 0.25
ICCM | 4.92
LVFP | ≤ 0.25
PFEF | ≤ 0.25
KVNH | ≤ 0.25
ASRN | ≤ 0.25
AHRS | ≤ 0.25
MGAQ | 18.9
DNDS | ≤ 0.25
LMWA | ≤ 0.25

Variant | enrichment ratio
WPFE | ≤ 0.25
VIWQ | ≤ 0.25
NNYF | ≤ 0.25
QYEI | ≤ 0.25
FMCC | 0.575
HPMD | ≤ 0.25
HMWK | ≤ 0.25
NRPE | ≤ 0.25
NNKY | ≤ 0.25
VHDQ | ≤ 0.25
FTKH | ≤ 0.25
FDHK | ≤ 0.25
AAAG | ≤ 0.25
PSWW | ≤ 0.25
EDIR | ≤ 0.25
WEGG | ≤ 0.25
TMGL | 7.75
TQDG | ≤ 0.25
SWHF | ≤ 0.25
YSHV | ≤ 0.25
TPAP | ≤ 0.25
DNHH | ≤ 0.25
LQVN | ≤ 0.25
EDIF | ≤ 0.25
ERMP | ≤ 0.25

Variant | enrichment ratio
WQSM | ≤ 0.25
KAKQ | ≤ 0.25
WWFP | ≤ 0.25
TPSQ | ≤ 0.25
LRVK | ≤ 0.25
RGCV | ≤ 0.25
LDWT | ≤ 0.25
TLWE | ≤ 0.25
RHIW | ≤ 0.25
VCNR | ≤ 0.25
MIGG | 7.3
YLGQ | ≤ 0.25
SDHQ | ≤ 0.25
SPRP | ≤ 0.25
QMRY | ≤ 0.25
CVSW | ≤ 0.25
IAHL | ≤ 0.25
AWIH | ≤ 0.25
IFVR | ≤ 0.25
IIIM | ≤ 0.25
PLRA | ≤ 0.25
LMTT | ≤ 0.25
LYIC | ≤ 0.25
GLFI | ≤ 0.25
HLPA | ≤ 0.25

Variant | enrichment ratio
DHTK | ≤ 0.25
ARNN | ≤ 0.25
IGSE | ≤ 0.25
HQIL | ≤ 0.25
FFFD | ≤ 0.25
MLPP | ≤ 0.25
EPVR | ≤ 0.25
YHAR | ≤ 0.25
FFAV | ≤ 0.25
DLRA | ≤ 0.25
LSWS | ≤ 0.25
YAQK | ≤ 0.25
NSNY | ≤ 0.25
NTDN | ≤ 0.25
YSIT | 0.437
YNRR | ≤ 0.25
FTYM | ≤ 0.25
IIHH | ≤ 0.25
SPDA | ≤ 0.25
TGHK | ≤ 0.25
KNGV | ≤ 0.25
YVFM | ≤ 0.25
VSSI | 6.02
EGLI | 3.9
YATR | ≤ 0.25

Variant | enrichment ratio
FWRI | ≤ 0.25
IFGY | ≤ 0.25
PTEW | ≤ 0.25
NAKH | ≤ 0.25
GGKA | ≤ 0.25
TPQW | ≤ 0.25
MAWR | ≤ 0.25
DYRM | ≤ 0.25
SWRG | ≤ 0.25
FELE | 20.4
GMAH | ≤ 0.25
HNVK | ≤ 0.25
PDYH | ≤ 0.25
LHMI | ≤ 0.25
LEIT | ≤ 0.25
YTAE | ≤ 0.25
QAHW | ≤ 0.25
QKPV | ≤ 0.25
QLIN | ≤ 0.25
TTLD | 2.04
SECQ | 11.4
WWRG | ≤ 0.25
KSER | ≤ 0.25
RINE | ≤ 0.25
RRVW | ≤ 0.25

Variant | enrichment ratio
LDQN | ≤ 0.25
YGPD | ≤ 0.25
DDCR | ≤ 0.25
ILQK | 1.02
SATP | ≤ 0.25
DLTS | ≤ 0.25
RPNP | ≤ 0.25
LLDM | ≤ 0.25
YTGM | ≤ 0.25
TYQF | ≤ 0.25
WPGW | ≤ 0.25
VQPA | ≤ 0.25
EPCD | ≤ 0.25
STIW | 1.22
SNRK | ≤ 0.25
VRCL | ≤ 0.25
HYVL | 0.873
FAMD | ≤ 0.25
FTNT | ≤ 0.25
QSTI | 1.77
